According to PubChem BioAssay AID540267 (National Center for Advancing Translational Sciences (NCATS), 2011):
The campaign covered roughly 340,000 compounds. About 530 (0.16%) were called active. This list was built around the results that the source calls inconclusive (neither active nor inactive); the mix of calls is not that of the screen. Cut-off read from the data, not from the text of the source: active = activity change below about -80%; inconclusive = between about -30% and that limit; inactive = weaker than that.

Experiment: Small Molecules that selectively kill Giardia lamblia: qHTS;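 note: parasites exposed to compound for two days anaerobically before the ATP read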
Details: Giardia lamblia trophozoite viability; at 7.66 µM; hits give low values
Procedure, shortened: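 Giardia trophozoites, 100 cells per well, were exposed to compounds for 48 hrs at 37 deg C under anaerobic conditions; viability was then read as ATP content by bioluminescence after 15-30 min at room temperature.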
% is set by controls: 0 for no effect and ±100 for the full control effect.

| SMILES | activity change |
| --- | --- |
| CN(CC(=O)Nc1cccc(F)c1)CC(=O)Nc1cccc(S(=O)(=O)N2CCCCC2)c1 | inactive: -12.3% |
| C(=C\c1ccccn1)/c1ccccn1 | inactive: -2.9% |
| COc1ccc(S(=O)(=O)N2CCN(C(=O)c3cc(-c4ccc(C)cc4)n[nH]3)CC2)cc1 | inactive: 3.43% |
| O=C(O)Cn1nnnc1-c1ccc(F)cc1 | inconclusive: -31.9% [inhibitor] |
| CN(Cc1ccccc1)C(=O)c1ccc(NC(=O)Cc2cccc(NC(=O)C3CCN(C(=O)C4CC4)CC3)c2)cc1 | inconclusive: -51.2% [inhibitor] |
| Nc1cccc(-c2nc3ccc(N)cc3s2)c1 | inconclusive: -39.7% [inhibitor] |
| S=C(NCC1CCCO1)Nc1cccc2ccccc12 (configuration not stated) | inconclusive: -31.8% [inhibitor] |
| CCOC(=O)c1ccc(NC(=O)c2nc[nH]c2C(=O)N[C@@H](CC(C)C)C(=O)OCc2ccccc2)cc1 | inactive: -12.9% |
| CCOC(=O)N1CCN(CC(O)COc2cc(C)ccc2C(C)C)CC1 (configuration not stated) | inconclusive: -34.3% [inhibitor] |
| Nc1ccc(C(=O)Nc2ccc3cc(S(=O)(=O)O)ccc3c2)cc1 | inconclusive: -31.8% [inhibitor] |
| O=C(Nc1nc2ccccc2s1)C1CCN(S(=O)(=O)c2cc([N+](=O)[O-])ccc2Cl)CC1 | inconclusive: -40.8% [inhibitor] |
| Clc1ccc(OCCCNCc2ccccc2)c(Br)c1 | inactive: -4.64% |
| CCn1c(C)nnc1SCC(=O)Nc1ccc(C(C)=O)cc1 | inconclusive: -31.4% [inhibitor] |
| O=C(CN1C(=O)c2ccccc2S1(=O)=O)NC1CCCCCC1 | inconclusive: -32.2% [inhibitor] |
| N#CC1C=Cc2c(ccc3ccccc23)N1C(=O)c1ccccc1 (configuration not stated) | inconclusive: -60.4% [inhibitor] |
| Cc1ccc(S(=O)(=O)Nc2c(C)cc([N+](=O)[O-])cc2C)cc1 | inactive: -16.3% |
| CC(=NNC(=O)c1ccncc1)c1ccc(Cl)c(Cl)c1 | inactive: -4.59% |
| O=C(COC(=O)c1ccccc1OCc1ccc(Cl)cc1)NCC1CCCO1 (configuration not stated) | inconclusive: -34.7% [inhibitor] |
| CCOc1ccccc1/C=C/C(=O)c1ccc(Cl)cc1 | inconclusive: -32.9% [inhibitor] |
| NC(=O)C1(NC(=O)[C@@H]2CC3(CC(c4cccc(NC(=O)[C@@H]5CCC(=O)N5)c4)=NO3)CN2C(=O)c2ccccc2)CC1 (some centres not stated) | inconclusive: -31.2% [inhibitor] |
| Cc1ccc(OCCOCCN2CCN(C)CC2)c([N+](=O)[O-])c1 | inconclusive: -38.2% [inhibitor] |
| COc1cc(/C=C2\SC(=S)N(CC(=O)Nc3ccc(O)cc3)C2=O)cc(OC)c1OC | inconclusive: -37.2% [inhibitor] |
| CN(C)c1cc(NC(=O)CNC(C)(C)CC(C)(C)C)c2ccccc2n1 | inconclusive: -58.5% [inhibitor] |
| O=C(Nc1ccc(-c2cn3ccsc3n2)cc1)C1CC1 | inconclusive: -47.3% [inhibitor] |
| COc1ccc(NCc2nnc(SCC(=O)Nc3ccccc3OC)o2)cc1 | inconclusive: -33.3% [inhibitor] |
| COCCn1c(CCC(=O)O)ccc1-c1cccs1 | inactive: 31.6% |

| SMILES | activity change |
| --- | --- |
| COC(=O)c1nc2ccc(N3CCOCC3)cc2c(C)c1C(=O)OC | inconclusive: -43.9% [inhibitor] |
| O=[N+]([O-])c1cncc([N+](=O)[O-])c1Nc1ccccc1Cl | inconclusive: -53.9% [inhibitor] |
| O=c1c([N+](=O)[O-])cc(C(F)(F)F)cn1Cc1cccc(Cl)c1 | inconclusive: -74.8% [inhibitor] |
| CC(=O)N(C)C1=C(O)c2ccccc2C(=O)C1=O | inactive: 18.4% |
| COc1ccc([C@H]2CC(=O)C=C(c3ccc(Cl)cc3C)C2)cc1 | inconclusive: -38.2% [inhibitor] |
| O=C(C1=C[C@@H](C2CCCCC2)C[C@@H](OCCCCO)O1)N1CCN(Cc2ccc3c(c2)OCO3)CC1 | inconclusive: -31.4% [inhibitor] |
| COc1cccc(N2CCN(C(=O)CC(NC(=O)c3ccccc3)c3ccccc3)CC2)c1 (configuration not stated) | inactive: 7.64% |
| O=C1c2ccc3c4c(ccc(c24)C(=O)N1CCCCO)C(=O)N(CCCCO)C3=O | inconclusive: -70.4% [inhibitor] |
| O=C(CSc1nc2[nH]c(=O)cc(O)c2s1)Nc1nncs1 | inactive: -3.02% |
| O=C(COc1ccccc1)Nc1cc(S(=O)(=O)N2CCOCC2)ccc1N1CCCC1 | inactive: -13.2% |
| COc1cccc(Nc2nc(-c3ccc4c(c3)OCCO4)cs2)c1 | inconclusive: -36.5% [inhibitor] |
| CC(C)c1ccc(C(=O)NCCCNC(=O)c2cnccn2)cc1 | inconclusive: -39.4% [inhibitor] |
| CCC/C(O)=C1\C(=O)CCCC1=NCCc1c(C)[nH]c2ccc(C)cc12 | inconclusive: -36.4% [inhibitor] |
| COC(=O)CCN(C(=O)c1ccc(N2CCCC2)c([N+](=O)[O-])c1)c1ccccn1 | inconclusive: -33.3% [inhibitor] |
| Cc1ccc(OCC(=O)Nc2ccc(Cl)cc2)c([N+](=O)[O-])n1 | inconclusive: -43.9% [inhibitor] |
| O=C(NCc1ccco1)c1ccc2c(c1)N(Cc1ccc(Cl)cc1)CCS2 | inconclusive: -33.6% [inhibitor] |
| N#Cc1cccc(Oc2ccc(S(=O)(=O)N3CCCC3)cn2)c1 | inactive: -10.8% |
| S=C(Nc1ccccc1)N1N=CCC1c1ccccc1 (configuration not stated) | inactive: 12.4% |
| O=C(C1CC1)N1c2ccccc2Sc2ccccc21 | inconclusive: -41.2% [inhibitor] |
| COc1cccc(NC(=O)N2CCC(C(=O)Nc3ccc(C)cc3C)CC2)c1 | inconclusive: -38.3% [inhibitor] |
| OCCCc1nc2n(n1)C(c1ccccc1)C=C(c1ccccc1)N2 (configuration not stated) | inconclusive: -41.2% [inhibitor] |
| O=C(Nc1cc(C(F)(F)F)cc(C(F)(F)F)c1)c1ccc(Cn2cc(C(F)(F)F)ccc2=O)cc1 | inactive: -9.59% |
| Cc1cc(OC(C)C(=O)N2CCN(c3ccc(F)cc3)CC2)c2c(C)cc(=O)oc2c1 (configuration not stated) | inconclusive: -36.9% [inhibitor] |
| Nc1nc2ccccc2n1Cc1ccc(Cl)c(Cl)c1 | inactive: -26.7% |
| COc1ccc(CNC(=O)Nc2cc(C)cc(C)c2)cc1 | inconclusive: -34.7% [inhibitor] |
| CCCCN1C(=O)N(c2ccccc2Cl)C(C)(O)CC1(C)C (configuration not stated) | inconclusive: -37.7% [inhibitor] |

| SMILES | activity change |
| --- | --- |
| Cc1ccc(N=Nc2c(O)ccc3n[nH]nc23)cc1 | inconclusive: -60% [inhibitor] |
| C=CCN1C(=O)C(C)NC1=S (configuration not stated) | inconclusive: -32.2% [inhibitor] |
| O=C(CN(Cc1ccco1)Cc1ccco1)Nc1cc(S(=O)(=O)N2CCCCC2)ccc1Cl | inconclusive: -30.1% [inhibitor] |
| COc1cnc(N(C)C)nc1Sc1cccc(Cl)c1 | inconclusive: -32.4% [inhibitor] |
| COc1ccccc1NS(=O)(=O)c1cccc(NC(=O)Nc2ccc(Cl)cc2)c1 | inactive: -9.5% |
| CCN(CC)CCC(c1cc(OC)c(OC)c(OC)c1)c1c(OC)cc(OC)c2ccc(=O)oc12 (configuration not stated) | inconclusive: -34.6% [inhibitor] |
| CCOC(=O)N1CCC(NC(=O)c2ccc3c(c2)N=C(C)c2ccccc2S3)CC1 | inconclusive: -30.7% [inhibitor] |
| COc1cc(CN2CCCC(CO)(Cc3cccc(Cl)c3)C2)cc(OC)c1O (configuration not stated) | inconclusive: -33.8% [inhibitor] |
| Cc1csc(NC(=O)CN2C(=O)c3ccccc3S2(=O)=O)n1 | inconclusive: -43% [inhibitor] |
| COc1ccc(Cl)cc1NC(=O)CN1CCc2ccccc21 | inconclusive: -30.7% [inhibitor] |
| CCOC(=O)c1cnc2ccc(OCC)cc2c1N(C)Cc1ccccc1 | inactive: -8.09% |
| Cc1ccc(OCC(=O)NCc2ccc3c(c2)OCO3)c([N+](=O)[O-])n1 | inconclusive: -40.8% [inhibitor] |
| COc1ccc(N(C(=O)c2ccncc2)S(=O)(=O)c2cccc([N+](=O)[O-])c2)cc1 | inactive: -1.59% |
| COc1ccc(OC)c2[nH]c(=O)c(CCNC(=O)c3ccc4c(c3)OCO4)cc12 | inconclusive: -32.8% [inhibitor] |
| O=C(Nc1cccc(-c2ccc(N3CCCCC3)nn2)c1)C(F)(F)F | inconclusive: -67.1% [inhibitor] |
| O=C(COc1cccc2ccccc12)N1CCN(c2ccccc2)CC1 | inactive: 1.05% |
| COc1c(-c2ccc(O)c(O)c2)oc2cc(O)cc(O)c2c1=O | inconclusive: -30.7% [inhibitor] |
| Nc1nnc(-c2ccc(Cl)cc2Cl)s1 | inactive: 34.4% |
| COc1ccc(/C=N/NC(=O)CN(C)S(=O)(=O)c2ccc(NC(C)=O)cc2)cc1 | inactive: -0.742% |
| COc1ccc(-n2nc([N+](=O)[O-])c(=NCCc3cccc(C)c3)n2O)cc1 | active: -85.5% |
| O=C(CSc1ccc2c(c1)OCCO2)Nc1cccnc1 | inconclusive: -34.2% [inhibitor] |
| CC[C@H]1c2[nH]c3ccccc3c2C[C@H]2C(=O)N(c3ccc(F)cc3)C(=O)N21 | inconclusive: -31.3% [inhibitor] |
| O=S(=O)(c1ccc2c(c1)OCCO2)N1CCN(c2ncnc3sccc23)CC1 | inactive: 13.5% |
| N#Cc1cc([N+](=O)[O-])ccc1Oc1cccc(/C=N/NC(=O)c2cccc(Cl)c2)c1 | inactive: 1.89% |
| CC(=O)NCCC(Cc1ccccc1)c1ccco1 (configuration not stated) | inconclusive: -30.1% [inhibitor] |
